Out of some 310,000 compounds screened, about 2,200 (0.71%) showed an effect of 50% or more. The effect is printed as a negative number. The list shows a part of the results.
What follows are molecules tested against human ether-à-go-go-related gene (hERG) potassium channel (human, UniProt Q12809) (assay: primary screen, population patch clamp on CHO cells stably expressing hERG).
Chain of human ether-à-go-go-related gene (hERG) potassium channel (Q12809 whole entry, looked up): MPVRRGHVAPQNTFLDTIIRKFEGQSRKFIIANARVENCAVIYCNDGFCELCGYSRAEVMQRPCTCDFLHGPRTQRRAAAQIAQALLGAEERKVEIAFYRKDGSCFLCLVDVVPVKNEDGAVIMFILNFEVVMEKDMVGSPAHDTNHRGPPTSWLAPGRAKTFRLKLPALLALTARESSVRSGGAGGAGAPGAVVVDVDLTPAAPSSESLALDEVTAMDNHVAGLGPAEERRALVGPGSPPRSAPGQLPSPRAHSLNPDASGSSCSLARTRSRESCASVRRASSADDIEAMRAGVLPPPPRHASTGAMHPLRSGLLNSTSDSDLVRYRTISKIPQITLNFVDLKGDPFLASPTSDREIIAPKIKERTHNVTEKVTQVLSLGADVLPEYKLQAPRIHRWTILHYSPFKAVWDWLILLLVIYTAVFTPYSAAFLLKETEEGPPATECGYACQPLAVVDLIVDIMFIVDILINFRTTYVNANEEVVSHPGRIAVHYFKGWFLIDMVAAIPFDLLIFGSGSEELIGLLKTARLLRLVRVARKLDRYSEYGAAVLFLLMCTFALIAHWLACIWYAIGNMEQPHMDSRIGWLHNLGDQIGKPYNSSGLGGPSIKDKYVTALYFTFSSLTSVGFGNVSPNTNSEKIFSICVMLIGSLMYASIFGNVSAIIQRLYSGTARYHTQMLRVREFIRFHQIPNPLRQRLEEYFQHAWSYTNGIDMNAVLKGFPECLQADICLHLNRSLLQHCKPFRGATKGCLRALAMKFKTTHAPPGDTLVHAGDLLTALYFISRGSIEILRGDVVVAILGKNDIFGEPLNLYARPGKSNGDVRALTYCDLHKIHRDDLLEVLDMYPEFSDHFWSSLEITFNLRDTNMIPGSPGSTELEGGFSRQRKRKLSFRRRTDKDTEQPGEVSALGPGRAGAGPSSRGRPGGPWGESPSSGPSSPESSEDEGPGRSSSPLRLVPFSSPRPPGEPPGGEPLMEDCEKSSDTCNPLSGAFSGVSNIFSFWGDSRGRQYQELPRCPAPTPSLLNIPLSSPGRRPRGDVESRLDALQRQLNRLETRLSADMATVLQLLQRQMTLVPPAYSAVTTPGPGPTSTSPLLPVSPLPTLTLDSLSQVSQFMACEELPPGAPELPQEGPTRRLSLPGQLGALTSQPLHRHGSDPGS

SMILES	hERG current change (%, negative = inhibition) at 1uM
CC12C(=O)N(Cc3ccccc3)C(=O)C1C1C=CC2C1 (stereo not drawn)	4.13%
CC(C)(C)c1ccc(C(=O)/C(C#N)=C/c2cccs2)cc1	15%
CCOC(=O)/C=C1\SCC(=O)N1CC(=O)NC12CC3CC(CC(C3)C1)C2	9.49%
Cc1cc(OC(C)C(=O)NCc2cccnc2)c2c(C)c(C)c(=O)oc2c1 (stereo not drawn)	15.4%
CC1CCCN(C(=O)C(C)Nc2cc(Cl)ccc2N2CCOCC2)C1 (stereo not drawn)	2.8%
CCCCN(C(=O)c1cc2c(s1)CCC2)c1c(N)n(CCCC)c(=O)[nH]c1=O	8.6%
O=[N+]([O-])c1ccccc1NCCNc1ncc(C(F)(F)F)cc1Cl	-6.55%
Nc1ccc(-c2nc3ncccc3o2)c(Cl)c1	-4.25%
N#CCc1nn(-c2ccc(F)cc2)c(N)c1C#N	4.17%
O=C(NCC1CCCO1)c1ccc(N2C(=O)C3CCCCC3C2=O)cc1 (stereo not drawn)	6.45%
NC(=O)CCN1CCN(C(=O)c2ccc3nc(Cc4cccc(Cl)c4)oc3c2)CC1	-0.116%
Cc1cc(C)n(CC2CC(=O)N(c3cc(Cl)cc(Cl)c3)C2=O)n1 (stereo not drawn)	6.63%
CCN(CCCNC(=O)C1CCN(S(=O)(=O)c2c(C)[nH]c(=O)[nH]c2=O)CC1)c1cccc(C)c1	7.52%
COCC(C)Nc1ccc(S(=O)(=O)N2CCCC2)cc1[N+](=O)[O-] (stereo not drawn)	8.38%
CNC(=O)c1ccc(-c2sc3nc(N4CCOCC4)c4c(c3c2N)CCCC4)o1	-8.43%
Cl.O=S(=O)(c1cccc2cnccc12)N1CCCNCC1	18.1%
CCOc1ccc(CNCCCSc2ncccn2)cc1	-13.8%
CC(Oc1cccc(F)c1)c1ccnc2nc(/N=C/N(C)C)nn12 (stereo not drawn)	14.4%
CCCn1nnc(NC(=O)c2ccc(F)cc2)n1	3.27%

SMILES	hERG current change (%, negative = inhibition) at 1uM
O=C(CN1C(=O)C2C3CC(C(Br)C3Br)C2C1=O)N1CCN(Cc2ccccc2)CC1 (stereo not drawn)	7.23%
CCOc1ccc(S(=O)(=O)N(C)CC(=O)NCc2ccccn2)cc1	10.7%
COc1ccccc1CNCC(=O)Nc1cc(S(=O)(=O)N2CCOCC2)ccc1Cl	10.1%
Cn1ccnc1SCC(=O)Nc1cc(S(=O)(=O)N2CCOCC2)ccc1Cl	5.52%
CC(C)C(=O)NS(=O)(=O)c1ccc(N)cc1	11.9%
S=c1[nH]nc(C2CCCCC2)n1/N=C/c1ccccc1Cl	13.7%
CCCCn1c(N)c(N(CCC(C)C)C(=O)CSc2nnc(Nc3ccccc3)s2)c(=O)[nH]c1=O	3.44%
COC(=O)C1=COC(C)C2CN3CCc4c([nH]c5ccccc45)C3CC12 (stereo not drawn)	9.77%
O=C(O)/C=C/C(=O)NNC(=O)c1ccccc1Br	8.31%
COc1ccc(OCC(=O)NNC(=S)NC(=O)C2CC2)cc1	5.94%
O=C1Cc2ccccc2N1c1ccccc1	-9.54%
O=C1CC(=O)Nc2cc(S(=O)(=O)Nc3ccc(Cl)c(C(F)(F)F)c3)ccc2N1	18.7%
O=C(O)c1ccc(CSc2nnc(-c3ccncc3)n2-c2ccc(Cl)cc2)cc1	8.8%
O=S1(=O)NC(=NCCc2ccccn2)c2ccccc21	8.25%
CC(C)(C)OC(=O)N1CCC(CC2CC(c3ccccc3)=NO2)(C(=O)O)CC1 (stereo not drawn)	13.7%
Cn1c(SCC(=O)NCc2ccc3c(c2)OCO3)nc2c(c1=O)SCC2	2.48%
COc1ccc(CNC(=O)C2CCN(S(=O)(=O)N3CC(C)CC(C)C3)CC2)cc1 (stereo not drawn)	12.7%
CCOc1ccc(NS(=O)(=O)c2c(C(=O)N3CCCCCC3)c(C)n(C)c2C)cc1	7.46%
O=[N+]([O-])c1ccc(CSc2nnc(Cc3ccccc3)n2-c2ccc(F)cc2)cc1	10.8%

SMILES	hERG current change (%, negative = inhibition) at 1uM
CC1(C)Oc2ccc3ccc(=O)oc3c2[C@@H](O)[C@H]1O	10.3%
CC(=O)N/C(=C\c1ccccc1)C(=O)OC(C)C(=O)Nc1ccccc1F (stereo not drawn)	5.92%
Cc1ccc(N2C(=O)[C@@H]3[C@H](C2=O)C2c4ccccc4C=CN2[C@@H]3C(=O)c2ccco2)c(C)c1 (stereo partly drawn)	3.42%
COc1ccccc1-c1nc2cc3ccccc3cc2nc1-c1ccccc1	1.04%
O=C(NCCO)c1ccc2[nH]c3c(c2c1)CCCC3	2.58%
CCC1(CC)NC(=O)N(CC(=O)OC(C)C(=O)Nc2cc([N+](=O)[O-])ccc2OC)C1=O (stereo not drawn)	6.25%
Cc1c(C(=O)N(C)CCC#N)oc2ccc(S(=O)(=O)N3CC(C)CC(C)C3)cc12 (stereo not drawn)	2.4%
COc1ccc(Cl)cc1NC(=O)Nc1cc(C)on1	8.52%
Cl.O=C(CC12CC3CC(CC(C3)C1)C2)NCC(c1ccc(F)cc1)N1CCOCC1 (stereo not drawn)	12.5%
CC1CCc2c(C(=O)NCc3ccco3)csc2C1 (stereo not drawn)	6.16%
Cc1cc(C)c2c(N)c(C(=O)NC3CCCC3)sc2n1	13.9%
COc1ccc(-c2cc(-c3ccccc3)nc(SCC(=O)Nc3nccs3)c2C#N)cc1	4.16%
COCc1cc(C)nc(OCC(=O)N/N=C/c2ccc(O)cc2O)c1C#N	-1.29%
O=C(COC(=O)c1cccc(Cl)c1)NCCN1C(=O)CSC1=O	14.3%
CCN(CC)C(CNC(=O)c1cc(=O)[nH]c2ccccc12)c1ccccc1Cl (stereo not drawn)	7.59%
O=c1c([N+](=O)[O-])cccn1Cc1cccc(Cl)c1	4.46%
CC(=O)c1c(C)nc(-c2ccccc2)nc1N	21%
CC(C)OC(=O)n1c(=S)oc2ccccc21	10.9%
N#Cc1ccc(OCC(=O)Nc2ccc(N3CCCC3)cc2)cc1	-0.546%

Source: paper PMC4336329 (PLoS ONE, 2015)
